In publication PMC4336329 (PLoS ONE, 2015):
Hit rate of the full screen: of about 310,000 compounds, about 2,200 (0.71%) showed an effect of 50% or more. Effects have a minus sign here. The list shows a part of the results.

biological target: human ether-à-go-go-related gene (hERG) potassium channel (human, UniProt Q12809); assay: primary screen, population patch clamp on CHO cells stably expressing hERG
Sequence (Q12809 whole entry, looked up): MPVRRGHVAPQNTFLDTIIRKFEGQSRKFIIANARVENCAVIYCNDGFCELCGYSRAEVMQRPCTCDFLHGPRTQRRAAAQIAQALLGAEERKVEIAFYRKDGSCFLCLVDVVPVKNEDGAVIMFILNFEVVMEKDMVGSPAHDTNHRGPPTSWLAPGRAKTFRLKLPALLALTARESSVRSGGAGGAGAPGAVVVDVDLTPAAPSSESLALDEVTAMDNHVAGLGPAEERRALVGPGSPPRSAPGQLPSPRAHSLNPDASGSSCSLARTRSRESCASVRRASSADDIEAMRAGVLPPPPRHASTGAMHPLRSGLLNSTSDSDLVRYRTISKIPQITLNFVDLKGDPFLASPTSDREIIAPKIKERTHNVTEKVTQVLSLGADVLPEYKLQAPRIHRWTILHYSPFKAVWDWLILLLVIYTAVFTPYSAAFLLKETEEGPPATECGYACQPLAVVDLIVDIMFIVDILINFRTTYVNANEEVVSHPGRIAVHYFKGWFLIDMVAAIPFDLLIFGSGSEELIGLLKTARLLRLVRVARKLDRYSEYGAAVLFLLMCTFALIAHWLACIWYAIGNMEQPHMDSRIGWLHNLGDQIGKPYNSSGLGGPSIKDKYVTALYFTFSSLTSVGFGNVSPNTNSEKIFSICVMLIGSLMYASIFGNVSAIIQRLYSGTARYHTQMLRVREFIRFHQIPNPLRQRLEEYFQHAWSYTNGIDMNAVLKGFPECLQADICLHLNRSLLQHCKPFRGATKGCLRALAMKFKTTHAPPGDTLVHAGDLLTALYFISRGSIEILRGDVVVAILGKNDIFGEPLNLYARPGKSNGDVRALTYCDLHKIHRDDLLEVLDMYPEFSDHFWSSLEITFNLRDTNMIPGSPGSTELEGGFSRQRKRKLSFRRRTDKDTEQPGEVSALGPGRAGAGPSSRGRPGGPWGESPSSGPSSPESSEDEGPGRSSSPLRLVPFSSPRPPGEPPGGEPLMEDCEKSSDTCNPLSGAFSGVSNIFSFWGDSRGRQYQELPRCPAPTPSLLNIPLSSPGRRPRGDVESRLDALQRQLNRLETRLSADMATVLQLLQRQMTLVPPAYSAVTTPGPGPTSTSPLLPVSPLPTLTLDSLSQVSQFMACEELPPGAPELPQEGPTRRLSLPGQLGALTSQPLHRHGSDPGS

SMILES | hERG current change (%, negative = inhibition) at 1uM [%]
COC(=O)C(Cc1ccc(OC(=O)c2ccc(C(F)(F)F)cc2)cc1)N1Cc2ccccc2C1=O (stereo not shown) | 13.8
COC(=O)Cc1[nH]nc2c1C1(C(=O)N(Cc3ccc(Cl)cc3)c3ccccc31)C(C#N)=C(N)O2 (stereo not shown) | 9.65
O=C(CCNC(=O)C1CCN(S(=O)(=O)c2ccccc2)CC1)NCCc1cccc(F)c1 | 13.1
CC(NC(=O)c1ccc(N2CCNCC2)c([N+](=O)[O-])c1)C12CC3CC(CC(C3)C1)C2 (stereo not shown) | 17.2
CCCN(CCC)CCCNC(=O)c1cc2c(=O)n(CC)c3ccccc3c2s1 | -6.47
Cc1ccc(NC(=O)CN(C)C(=O)CSc2nc3ccccc3o2)cc1 | -2.45
O=C(CSCc1ccc(Cl)cc1)N/N=C/c1c(Cl)cccc1Cl | 6.35
COc1ccc(OC)c(NC(=O)C2CCC(CNc3c(N4CCC(C)CC4)c(=O)c3=O)CC2)c1 (stereo not shown) | 19.4
COc1cc(OC)cc(-c2nc3ccccc3c(=O)n2OC(=O)c2ccc(C)c(C)c2)c1 | -3.49
CCCCOC(=O)Cn1c2ccc(OC)cc2c2nc3ccccc3nc21 | -12.8
CCOc1ccc(CN2C(=O)CC(=O)N(S(=O)(=O)c3ccc(OCC)cc3)C2=O)cc1 | 10.5
CCc1ccc(CN2CCSCC2)cc1 | 10.4
Cc1cc(=O)n(-c2ccc(Cl)cc2)c(=O)[nH]1 | 14.4
Cc1ccc(N=Nc2ccc(O)c(/C=N\NC(=O)c3ccc(N)cc3)c2)cc1C | 6.52
CC(C)(C)OC(=O)N1CCN(c2ccc(NC(=O)Cn3nnc(-c4ccccc4)n3)cc2)CC1.Cl | -1.83
COc1ccc(Nc2ccc3c(c2)=NC2(CCCCC2)[N+]=3[O-])cc1 | 2.24
CCOC(=O)NC(=O)/C(C#N)=C\Nc1sccc1C(=O)OC | 7.94
COC(=O)CN1C(=S)N(c2ccc(Cl)cc2)C(=O)C1CC(=O)Nc1ccc(F)cc1 (stereo not shown) | 10.9
COc1cccc(S(=O)(=O)NCc2ccc(C(=O)Nc3ccc(C)cc3)cc2)c1 | 5.12
CCCn1c(SCC(=O)N(CC)CC)nnc1-c1ccncc1 | 7.97
Cc1sc(N)nc1-c1ccc2c(c1)OCCO2 | 9.99
Cc1cc(N)c2cc(NC(=O)/C=C/c3ccccc3Cl)ccc2n1 | -15.4
CCCCc1c(O)nc(SCC(=O)c2ccccc2)[nH]c1=O | -3.71
O=C1CCN(Cc2ccccc2)N1 | 19.9
Cc1cc(NC(=O)CN2CCN(c3cccc(Cl)c3)CC2)no1 | 10
CCc1ccc2[nH]cc(S(=O)(=O)c3ccc(C)c(C)c3)c(=O)c2c1 | 14.9
Cc1ccc(S(=O)(=O)NCC(=O)OCc2nnc(-c3ccccc3)o2)cc1C | 0.172
CC(=O)c1cccc(NC(=O)C(=O)Nc2cccc3ccccc23)c1 | 12.7

SMILES | hERG current change (%, negative = inhibition) at 1uM [%]
Cc1ccc(CCNS(=O)(=O)c2ccc3c(c2)C(C)(C)C(=O)N3C)cc1 | 10.5
C=CCNC(=S)NNC(=O)COc1ccc(Cl)cc1Cl | 0.736
Cc1cc(C)nc(N2CCCC(C(=O)NCCc3cccc(F)c3)C2)n1 (stereo not shown) | 7.94
O=C(CSc1ccc2nnc(-c3cccc(F)c3)n2n1)N1CCCc2ccccc21 | 8.85
COc1cccc(N(C(=O)Cn2nnc(-c3cccs3)n2)C(C(=O)NC2CCCCC2)c2ccncc2)c1 (stereo not shown) | 7.95
CC(=O)c1ccc(OCc2cc(C(=O)NCCc3ccc(Cl)cc3)no2)cc1 | -0.583
COc1ccccc1N(CCN1C(=O)c2cccc3cccc(c23)C1=O)C(=O)c1ccncc1 | 13.8
COc1ccc(-c2nc3c(=O)n(C)c(=O)[nH]c3n2CCc2ccccc2)cc1 | 17.8
Cc1c2ccccc2cc(Cc2ccccc2)[n+]1C.[I-] | 13.6
COc1ccc(-c2nc(CS(=O)CC(=O)NCCCN3CCCC(C)C3)c(C)o2)cc1OC (stereo not shown) | 19
Cc1nn(-c2ccccc2)c(Cl)c1CN(C(=O)CCl)c1cccc2ccccc12 | -2.32
CCCCCCN1C=CC=C/C1=C/C=C(C#N)C#N | -26.6
Cc1ccc(N(CC(=O)NC2CCCC2)C(=O)CCC(=O)Nc2nccs2)cc1C | -0.301
Nc1c(C(=O)N2CCOCC2)sc(=S)n1-c1ccccc1 | 2.04
COc1cccc(Nc2ncnc3onc(-c4ccccc4OC)c23)c1 | -1.35
O=C(c1cccc(Cl)c1)C1CCCN(C(=O)c2ccoc2)C1 (stereo not shown) | -17.9
O=C(CN1CCN(S(=O)(=O)c2ccccc2C(F)(F)F)CC1)NCc1cccs1 | -43.2
COc1ccc(S(=O)(=O)CCC(=O)N2c3ccccc3CC2C)cc1 (stereo not shown) | -9.87
O=C(CCOc1ccccc1)Nc1ccnn1C1CCN(Cc2ccc(O)cc2)CC1 | -3.76
CN(C)c1ccc(C(=O)/C=C/c2ccc(Br)cc2)cc1 | 6.18
CNC(=O)Cc1csc2ccc(Cl)cc12 | 11.5
O=C(COc1ccc(Br)cc1)NN1C(=O)c2ccccc2C1=O | 8.41
C/C(N)=C(/C#N)C(=O)COC(=O)c1ccccc1Cc1ccccc1 | 12.9
Cc1ccc(OCC(=O)N/N=C/c2cccnc2)cc1C | 7.71
O=C(Nc1ccccn1)c1ccc(Cl)c(S(=O)(=O)N2CCCC2)c1 | 16.9
CCOC(=O)/C(C#N)=C/C1=C(N2CCCC2)CC(C)(C)OC1 | 5.2
CCCCCCNC(=O)C(C(=O)OCC)C1CCCCC1 (stereo not shown) | 13.7
